Experimental data published in the supplement of paper PMC10126150.
Sequences with one replicate were seen in a single cluster, so their values are uncertain.

System: ATP
Test: switch fluorescence ratio, 500 uM ATP over buffer (Cy3 cluster intensity, sum of 5 cycles each) (fold (ratio)); higher = stronger signal-on switching upon ATP binding; sequences stand for … in TCGTCGGCAGCGTCAGATGTGTATAAGAGACAGTTTTTTTTTTTTTTTTTTTTTTTTT…TC
Settings: aptamer strand: ATP DNA aptamer (quencher-CACCTGGGGGAGTATTGCGGAGGAAGG + anchor), 100 nM annealed; ATP concentration: 500 uM; one replicate
Procedure, shortened: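 Per cluster, summed Cy3 intensity from the target cycles was divided by that from the buffer cycles to give the fluorescence ratio, then averaged per switch-domain sequence. Clusters outside 100-1000 RFU were excluded. The Cy3-labelled switching-strand clusters, on a modified Illumina MiSeq flow-cell, were annealed to 100 nM quencher-labelled ATP aptamer and imaged in selection buffer, then after 15 min with 500 uM ATP at 22 °C, for five cycles with NaOH stripping and re-annealing between them.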
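Further: ATP exposure 15 min at 22 °C before imaging.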

Sequence | switch fluorescence ratio
GTAGGTCGCA | 0.992
TGCAAGGACC | 1.09
AACTTACCCA | 1.18
TAACAAGATG | 1.04
GCGGAATGTT | 1.01
AATGCATACT | 1.14
AACGAAATAT | 1.15
CCAGTGCTGT | 1.01
GCGAAACGGC | 1.16
ACTATGTACA | 1.05
AGCTTCCGGT | 1.04
ATTGGGTGAC | 1.01
TCAGCGTAGG | 1
CCATAGAGTC | 1.04
ACGACTGTT | 1.12
CAAACTTGTG | 0.996
TAAGGTCTAA | 1
AGGCTTAAA | 0.966
AACTGCCGTT | 1.02
TATTCTATTA | 0.998
CATGGTACTG | 1.1
TTGTGGGCTT | 1.39
AGTTTTATAT | 1.01
CCCCCCCACT | 1.13
TTCCGCCTAG | 1.64
AAACGCCGGC | 1.1

Sequence | switch fluorescence ratio
GGATGGACTA | 0.989
TCTATTCCA | 1.01
ATCGTAAAAA | 1.02
GCCGGTTGAC | 1.03
CACTTTGGCT | 0.991
ATAGAGTCTG | 0.997
AAACTGATAA | 1.02
AATTCATTGT | 0.966
GCAGGTTTT | 0.975
TTTGGGGAG | 1.02
GGTTGGGCTG | 0.972
CGGAAGACCT | 1.06
ACCTTTACAT | 1.18
ATCTTCTACA | 1.02
CTGATACATG | 1.05
GCGTCTACAA | 0.996
TAATGCGATA | 1.05
GGGCGAGGCA | 0.972
AAGGGAAGCT | 0.989
AAGGCAAA | 1.02
AACGATTAAA | 1.07
AGAAGGGTGC | 1.11
AAAAGTTAA | 1.05
GTAAATAATG | 1.02
CGACTCCTCC | 1.76
CAATCATCCC | 1.02

Sequence | switch fluorescence ratio
GTTGAGGGAT | 0.938
ACAAATACAC | 1.07
AACGTATGCA | 1.04
TGCCTATGTG | 1.04
CCAATTCGAA | 0.991
TGATAGTGGA | 1
TAGCCTGGGG | 0.992
GCCCTGCTA | 1
CCGATAGGTT | 1.02
CGGGGTGAAG | 0.98
GGTTGCCATT | 1
ATTAGTAAAA | 1
CTATAGTGGG | 0.975
GGTTTTCGCC | 1.06
CTAGTTCATG | 0.995
CCTCATTCGT | 1.05
TTGCGGGAGG | 0.968
TATCCCGGGC | 1
CCCATTGCGC | 1.03
AAGCGGACCA | 1.02
GATTCAACCC | 1.03
GATCCGATA | 1.05
CTTACCTTC | 1
ATTTGTGGAG | 1.01
AATCCGATTC | 1.05
CGCAGGGAAT | 0.988

Sequence | switch fluorescence ratio
TAGTTGTT | 0.984
AAAAAAGCCC | 0.997
GCATCGAATC | 1.04
TGCAAGGTGG | 1.04
TTAATCCTTT | 1.02
CCCACTTCTT | 1.03
TCGTTGTGG | 0.991
CTGTCCAGA | 0.962
GCCAGTGATC | 0.998
GGGTACCCCC | 1.05
CGGACCAGAT | 0.988
GATATAGTAC | 1.17
CAGTACATTT | 1.04
ACAGCCGGGA | 0.998
GGATTGAAA | 0.971
CTATATGTCT | 0.939
AGGTGCGAAG | 0.993
ACGTAAGACT | 1.72
GTAGGCGAAA | 1.01
GCTTCATCGG | 1.21
AATACCAGGA | 1.03
GGCTGCATAA | 1.12
CCGCTACGGA | 1.56
GCTTTTCCTC | 1.08
TTGAATACGT | 1.02
ATCACCGAAA | 1.12

Sequence | switch fluorescence ratio
GGACCTACTT | 1.26
ACCCGTAGTC | 1.28
CGCGGGGAGA | 1.1
TTCGGAAAC | 1.11
CTGAGAAAG | 1.04
GTGTAAGAGT | 0.997
AAAGGATAT | 1
ACCTATCAAA | 1.04
ATCGGATAAA | 1.08
AACAGACAAG | 1.04
TAATTGAACT | 1.02
GGATCTGAGT | 1.03
CTAATAGG | 1.02
AGGTGGAAGA | 1
TCACCGTGAG | 1.08
TAGTAACTTT | 1.03
TTAATATTA | 1.02
ATAACGCCT | 1.03
TAGACTTAT | 0.988
TAGCGAAGGG | 1
TAGGTCGGAG | 0.971
CATAATGTTT | 0.991
CTGGAAGCAG | 1.35
GATGGTCAC | 1
CGCATCATTG | 1.05
GTCTGACGA | 1.04

Sequence | switch fluorescence ratio
AGAAAATAGC | 1
GGGCGGCTA | 0.747
GGGTGCCGAA | 1.11
TATCGTGTG | 0.961
CCTCTAAAGA | 4.26
TGGCCGAACT | 1.04
CCTCTGATAG | 4.3
AGGGCTAAGC | 0.961
GAGATCTCGG | 0.985
ATATCGAAAA | 0.974
ACCAGGACCG | 1.16
ATCTACTTGA | 1.03
TGGGGGATT | 0.976
TGTAGGAGAG | 0.99
GGTAGGCTTG | 0.999
CGAGGTTTGG | 0.99
TTTTCATGTC | 0.942
GTGAAAAAAT | 0.992
GGCCGGTCCT | 1
AACGGGTGAT | 1.09
TGGGCTACAA | 1.05
AACTTGCCCC | 1.04
TGAGCGTGCC | 0.987
AAGTTGTCAC | 1.01
GCTGCAGCGT | 1
GCACTCCTGT | 0.954

Sequence | switch fluorescence ratio
GGAGGACTAC | 1.07
CTTATGTAGT | 1.04
AATCGGCGAG | 1
CAAGAATAAA | 1.02
ATGTGGCAAC | 1
TGGCAGGTCC | 1.24
TGTGGATGCC | 0.992
GCGGCCCTTT | 1.01
TCCTTTGTCT | 1.05
TCGGATATCT | 0.941
TTTTGCATGT | 1.02
GGTTCTATAA | 0.983
TCCTACCCTG | 1.1
TTATGCTAG | 1.02
TCCTTTTGCC | 1.16
TACGTTTACA | 1.27
CCCGGAGTCG | 0.984
AAAAACTGT | 0.937
ATATTTAGGG | 0.929
GGTAACTAGA | 1
TAGTGATGAT | 1
CAATTGTTCG | 1.03
ACTCATGTCG | 1
ATGCGTGTTG | 0.962
TTCTATTTCA | 0.993
GTTTCTGCGT | 0.98

Sequence | switch fluorescence ratio
GTGAGCGATT | 1.03
CATGGACCTT | 0.964
GGGACGGGTC | 0.981
ATGGAAGCCA | 0.998
GGGCGACAGG | 1
AAATACATGT | 1.03
ATGGCGAT | 1.01
ATCAACGTGT | 0.972
ATGGACGACC | 1.07
CGTCTGAGGA | 0.978
CGAAAAACAT | 1.01
ACGTATACAC | 1.47
GACTGTTTTG | 1.01
TGTCGAGTCT | 1.01
AGCCCTAGTG | 1.14
TATTACTATG | 1.02
GGTTGATATC | 1.02
GTGTAGGCA | 0.977
CCTGTAGGC | 0.972
